# Experimental data taken from PubChem BioAssay (NCI).
#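 Following 48 hours of exposure in 96-well plates, responses at five concentrations were used to interpolate endpoints linearly. GI50 = concentration required for 50% inhibition of growth.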 Certain results were filed several times, with different values. The other results are left out here. There may be further records. Values that stand side by side are repeated measurements (runs, samples, wells, individuals or studies). Marks in square brackets tell the records apart. Letters count within one entry.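 TGI: total growth inhibition.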
# Key:
# Experiment in all cases: NCI-60 cell line screen, 48 h
# [1] = test system: CCRF-CEM leukemia
# [2] = test system: HL-60(TB) leukemia
# [3] = test system: SNB-75 CNS
# [4] = test system: SW-620 colon
# [5] = test system: UO-31 renal
smiles,measurement,setting,value
CN(C)c1ccc(/C=C/c2sc3ccccc3[n+]2C)cc1,GI50,[1],"215 nM [sample A, 1 test] and 2.54 µM [sample B, 1 test]"
same,TGI,[1],"3.35 µM [sample A, 1 test] and > 100 µM [sample B, 1 test]"
same,TGI,[2],409 nM [sample A] and 8.74 µM [sample B]
same,TGI,[3],"951 nM [sample A, 1 test] and 37.5 µM [sample B, 1 test]"
same,TGI,[4],7.12 µM [sample A] and > 100 µM [sample B]
same,TGI,[5],"1.01 µM [sample A, mean of 2 tests] and 17.7 µM [sample B, 1 test]"
